Assay results reported in the supplement of paper PMC4723716.
± gives the uncertainty stated by the source. In all, about 9,900 compounds were measured (“viability index relative to DMSO control”: median about 1, lowest 2% from about 0.85 on). Some of the results follow.

System: Plasmodium falciparum NF54 stage V gametocytes
Test: viability index relative to DMSO control (fraction); higher = less gametocyte killing
Conditions: 2.5 µM, library set: Broad Institute DOS, incubation time: 72 h
Outline: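 Viability index is the count of red-stained particles in a well divided by the plate mean of solvent-only wells. Particles of 20–70 µm2 were counted in one imaged field per well after one to two hours with 3 µl of 2.5 µM MitoTracker Red CMXRos and 0.13% saponin. Before staining, P. falciparum NF54 stage V gametocytes in serum-free medium (0.75% gametocytemia, 1.25% hematocrit, 10 µl, 1,536-well plates) were kept with compound at 2.5 µM for 72 hr at 37°C under low oxygen.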

Compound | viability index
O=C(Nc1ccccc1F)N1CC(=O)N2[C@H](C1)[C@@H](c1ccc(-c3cccnc3)cc1)[C@@H]2CO | 1.06 ± 0.03
COc1cccc(-c2ccc([C@H]3[C@@H]4CN(Cc5ccccn5)C[C@H]3N4)cc2)c1 | 1.01 ± 0.0072
COc1ccc(CNC(=O)N(C)C[C@H]2OCc3ccccc3-c3c(n(C)c4ccccc34)C(=O)N([C@@H](C)CO)C[C@H]2C)cc1 | 0.954 ± 0.053
COCC(=O)Nc1ccc2c(c1)[C@H]1C[C@H](CC(=O)N3CCOCC3)O[C@H](CO)[C@H]1O2 | 1.11 ± 0.013
Cc1ccccc1-c1ccc([C@H]2[C@@H]3CN(C(=O)c4ccc(F)cc4)C[C@H]2N3)cc1 | 1.01 ± 0.12
COc1ccc(C#Cc2ccc3c(c2)[C@@H]2[C@@H](CCN2S(=O)(=O)c2ccccc2C)[C@@H](CO)N3C)cc1 | 1.09 ± 0.027
C[C@@H]1CN([C@@H](C)CO)S(=O)(=O)c2ccc(-c3cncnc3)cc2O[C@H]1CN(C)C(=O)NC1CCCC1 | 1.08 ± 0.13
N#C[C@H]1[C@@H](c2ccccc2-c2cccc(F)c2)[C@H](CO)N1C(=O)c1cccnc1 | 1.1 ± 0.092
Cc1noc(C)c1NC(=O)Nc1ccc2c(c1)C(=O)N(C)[C@@H]1CC[C@@H](CC(=O)N[C@@H]3CCN(Cc4ccccc4)C3)O[C@@H]1CO2 | 1.14 ± 0.018
CO[C@H]1CC[C@@H]2CCOc3c(C#N)cccc3C(=O)N(C)C[C@@H](OC)[C@H](C)C(=O)N(C)C[C@@H]1O2 | 1.03 ± 0.059
C[C@H](O)C#Cc1ccc([C@@H]2[C@@H](CO)N3CCCCN(CC4CC4)C[C@H]23)cc1 | 1.02 ± 0.11
C/C=C/c1ccc([C@H]2[C@H]3CNC[C@@H]2N3S(=O)(=O)c2ccc(Cl)cc2)cc1 | 1.12 ± 0.038
CC(C)(C)[S@](=O)N1Cc2cc(C(=O)NCC(F)(F)F)nc(-c3cccc(-c4cccc(F)c4)c3)c2[C@@H]1CCO | 1.02 ± 0.025
O=C(C[C@H]1CC[C@H]2[C@@H](COC[C@H](O)CN2S(=O)(=O)c2cccc(Cl)c2)O1)N1CCOCC1 | 1.03 ± 0.067
CN(C)C(=O)c1ccc(-c2ccccc2[C@H]2[C@@H](CO)N(C(=O)C3CC3)[C@H]2C#N)cc1 | 0.998 ± 0.065
CO[C@@H]1CN(C)C(=O)c2cc(NC(C)=O)ccc2OC[C@@H](C)N(S(C)(=O)=O)C[C@@H]1C | 1.03 ± 0.047
O=C(C[C@H]1CC[C@@H](NC(=O)c2ccc3c(c2)OCO3)[C@H](CO)O1)NCc1ccc(Oc2ccccc2)cc1 | 1.14 ± 0.039
COc1ccc(NC(=O)N(C)C[C@H]2OCCCC[C@H](C)Oc3ccc(NC(=O)c4ccncc4)cc3C(=O)N([C@@H](C)CO)C[C@H]2C)cc1 | 1.07 ± 0.066
COc1ccc2c3c([C@@H](CO)N(C[C@]33CCN(C)CC3)C(=O)NC3CCCCC3)n(C)c2c1 | 0.928 ± 0.12
